The results in this text go back to PMC4336329 (PLoS ONE, 2015).

The campaign covered roughly 310,000 compounds. About 2,200 (0.71%) showed an effect of 50% or more. The effect is printed as a negative number. This is one part of the list.

Chain of human ether-à-go-go-related gene (hERG) potassium channel (Q12809 whole entry, looked up): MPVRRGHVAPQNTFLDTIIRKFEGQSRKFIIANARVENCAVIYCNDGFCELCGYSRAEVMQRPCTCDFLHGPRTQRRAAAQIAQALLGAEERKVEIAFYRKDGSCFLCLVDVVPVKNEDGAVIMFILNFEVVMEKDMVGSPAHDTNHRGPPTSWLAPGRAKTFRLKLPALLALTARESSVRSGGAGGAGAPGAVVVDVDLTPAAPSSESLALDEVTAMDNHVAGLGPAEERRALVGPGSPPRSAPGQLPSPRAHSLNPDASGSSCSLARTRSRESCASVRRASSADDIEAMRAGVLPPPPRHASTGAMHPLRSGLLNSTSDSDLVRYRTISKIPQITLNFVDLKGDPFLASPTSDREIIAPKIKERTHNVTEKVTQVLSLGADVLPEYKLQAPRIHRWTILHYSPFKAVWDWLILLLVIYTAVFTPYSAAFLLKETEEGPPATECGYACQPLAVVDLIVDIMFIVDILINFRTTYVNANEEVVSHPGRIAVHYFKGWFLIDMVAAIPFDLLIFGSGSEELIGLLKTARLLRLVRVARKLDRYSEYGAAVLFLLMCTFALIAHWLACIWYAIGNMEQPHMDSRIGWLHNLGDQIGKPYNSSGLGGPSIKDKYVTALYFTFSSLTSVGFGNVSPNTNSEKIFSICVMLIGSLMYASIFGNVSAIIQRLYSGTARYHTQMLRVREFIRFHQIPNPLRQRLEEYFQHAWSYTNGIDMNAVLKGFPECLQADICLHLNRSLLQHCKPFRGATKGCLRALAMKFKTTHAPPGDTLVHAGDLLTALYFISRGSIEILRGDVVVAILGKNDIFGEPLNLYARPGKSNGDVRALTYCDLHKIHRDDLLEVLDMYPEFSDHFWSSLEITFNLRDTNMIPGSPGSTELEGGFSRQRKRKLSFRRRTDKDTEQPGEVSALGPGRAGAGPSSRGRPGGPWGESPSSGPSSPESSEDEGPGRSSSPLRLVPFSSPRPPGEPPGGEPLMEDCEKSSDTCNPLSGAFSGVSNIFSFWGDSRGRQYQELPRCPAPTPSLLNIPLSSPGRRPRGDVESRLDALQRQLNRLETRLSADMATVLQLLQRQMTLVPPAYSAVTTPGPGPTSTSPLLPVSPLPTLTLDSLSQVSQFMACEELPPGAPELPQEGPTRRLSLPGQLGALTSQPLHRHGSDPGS

This test has as its target human ether-à-go-go-related gene (hERG) potassium channel (human, UniProt Q12809). Kind of test: primary screen, population patch clamp on CHO cells stably expressing hERG.
In the case of `O=C(c1ccc(CN2CCOCC2)cc1)N1CCN(c2ccccc2)CC1`, the “hERG current change (%, negative = inhibition) at 1uM” value is given as 10.8%.
Regarding `COc1ccc(NC(=O)NCCN2CCN(c3cc(OC)ccc3OC)CC2)cc1`, the “hERG current change (%, negative = inhibition) at 1uM” value is 13.5%.
Then `Cc1ccc2c(c1)sc(C)[n+]2CCCS(=O)(=O)[O-]`, with 16.2%; and `COCc1cc(C)nc(SCC(=O)Nc2ccc3c(c2)n(C)c(=O)n3C)c1C#N`, with 17.5%; and `Cn1c(SCC(=O)Nc2cccnc2)nnc1-c1ccccc1F`, with 19.2%.
With `O=C(CN1CCOCC1)Nc1ccc(Br)cn1` the figure was 7.12%; with `CC(C)(C)c1csc(NC2=NS(=O)(=O)c3ccccc32)n1`, 13.7%; with `Cc1ccc(NC(=S)NNC(=O)CSc2nc3ccccc3c(=O)n2-c2ccc(C)cc2)cc1`, 12.6%.
With `O=C(Nc1ccc2oc(-c3ccncc3)nc2c1)c1c(F)c(F)c(F)c(F)c1F` the figure was 13.4%.
For the compound `Cc1ccccc1Nc1nnc(SCC(=O)NCc2cccs2)s1`, the “hERG current change (%, negative = inhibition) at 1uM” value amounted to 4.93%.
`S=c1[nH]c2ccccc2[nH]1`: the “hERG current change (%, negative = inhibition) at 1uM” value is given as -6.79%.
Then `Cc1cccc(NC(=O)CN2CCN(C(=O)c3cnn(Cc4ccccc4)c3)CC2)c1C`, with -43.3%.
`Cc1oc(-c2ccc(Cl)cc2)nc1CN1CCC(C(=O)NCCCN2CCCC2=O)CC1`: the “hERG current change (%, negative = inhibition) at 1uM” value is -7.81%.
With `CCOC(=O)CC1=Nc2ccccc2NC(=O)C1` the figure was 5.61%; with `COc1ccccc1CN1C[C@@H]2C[C@@H](C3=Cc4cc(Cl)ccc4OC3)N3CCC[C@@]23C1=O`, -12.9%; with `O=C(COc1ccc(F)cc1)c1c(O)cc(O)cc1O`, 9%.
With `C[C@H]1CN(C2CCCCC2)C(=O)[C@@H]1CC(=O)NCc1ccccc1` the figure was -5.6%.
With `COc1cc2c(cc1NC(=O)CN1C(=O)NC3(CCc4ccccc43)C1=O)oc1ccccc12` (stereo not drawn) the figure was 6.63%.
As to `CCn1c(SCC(=O)N2CCOCC2)nc2oc3c(Cl)cc(Cl)cc3c(=O)c2c1=O`, the “hERG current change (%, negative = inhibition) at 1uM” value is given as -11.6%.
Then `Cc1cccn2c(=O)nc(SCC(=O)N3CCC(C)CC3)nc12`, with 2.05%.
With `COC(=O)c1c(C)[nH]c(C)c1-c1ccc([N+](=O)[O-])cc1` the figure was 17.3%.
Then `CC(=O)Nc1ccc(NC(=O)C(=O)c2cn(CC(=O)N3CCCC3)c3ccccc23)cc1`, with 15%; and `Cc1ccc(C)c(NC(=O)C2CCC(C)(C(=O)O)C2(C)C)c1` (stereo not drawn), with -11.1%; and `O=C(c1cc2ccccc2o1)N1CCN(S(=O)(=O)/C=C/c2ccccc2)CC1`, with 15.3%.
Regarding `Cn1nnnc1SCC(=O)NC(C)(C)C`, the “hERG current change (%, negative = inhibition) at 1uM” value is recorded as 7.36%.
With `Cc1cc(C)c(C(N)=O)c(Nc2ccc3c(c2)OCCO3)n1` the figure was 7.39%; with `CC(C)(C)c1cc(C(=O)N2CCN(c3ncccn3)CC2)ccn1`, -5.59%; with `CCOc1ccccc1NC(=O)C1CCN(S(C)(=O)=O)CC1`, 2.95%.
Then `O=C(NCCCl)C1Cc2c(ccc3ccccc23)O1` (stereo not drawn), with 11.8%.
As for `OCCCNc1c2ccccc2nc2ccccc12`, the “hERG current change (%, negative = inhibition) at 1uM” value is listed as -10.8%.
With `O=S(=O)(NCCc1csc(-c2cccnc2)n1)c1cccs1` the figure was -2.75%; with `CCCCCn1c(N2CCN(Cc3ccccc3)CC2)nc2c1c(=O)[nH]c(=O)n2C`, -77%.
In the case of `O=C(C1=C(O)C(=O)N(CCN2CCOCC2)C1c1ccc(Br)cc1)c1cc2ccccc2o1` (stereo not drawn), the “hERG current change (%, negative = inhibition) at 1uM” value was 15.5%.
Then `O=C(Cn1nnc(-c2ccc(F)cc2)n1)N1CCCCC1`, with 6.81%; and `COc1ccc(Cn2nnnc2CN(Cc2cc3cccc(C)c3[nH]c2=O)C2CCCC2)cc1`, with -34.5%.
With `COc1cccc(C2SCC(=O)N2c2ccc(Br)cc2)c1OC` (stereo not drawn) the figure was 2.41%.
Regarding `O=C(NCCc1ccccc1)C(=O)NCC1CCCN1S(=O)(=O)c1cccs1` (stereo not drawn), the “hERG current change (%, negative = inhibition) at 1uM” value was 5.75%.
With `NC1=CC(=O)c2cccc3cccc1c23` the figure was 10.6%; with `CC1CCCN(CCC(=O)Nc2ccc(F)c(F)c2)C1` (stereo not drawn), -11.5%.
Regarding `O=C(CCS(=O)(=O)c1ccc(Br)s1)NC1CCCC1`, the “hERG current change (%, negative = inhibition) at 1uM” value is reported as 6.5%.
With `Cc1ccc(-n2ncc3c2CC(C)(C)CC3NC(=O)c2ccncc2)cc1` (stereo not drawn) the figure was -48.8%.
With `CC(=NCC1CCCO1)c1c(O)n(-c2ccc(C)cc2)c(=O)[nH]c1=O` (stereo not drawn) the figure was -2.32%.
Then `COc1ccc(CN2CCN(Cc3ccon3)CC2CCO)c(C)c1C` (stereo not drawn), with 2.93%; and `COc1ccc(C(=O)c2c(C)c(CCC#N)n3ccccc23)c(OC)c1`, with 3.79%; and `CCc1nc(Nc2ccccc2)c2oc3ccccc3c2n1.Cl`, with -5.26%.
Regarding `Cc1cccc(OCCCCn2c(CO)nc3ccccc32)c1`, the “hERG current change (%, negative = inhibition) at 1uM” value is listed as 7.97%.
Then `Cc1cc(C)n(Cc2ccc(C(=O)NCc3ccco3)o2)n1`, with 6.25%; and `CC(=O)c1cccc(NC(=O)NCCc2c[nH]c3ccccc23)c1`, with 5.25%.
Consider `CN(CC(=O)Nc1cccc(F)c1)C(=O)c1cc(S(=O)(=O)N(C)C)ccc1N1CCCC1`, for which the “hERG current change (%, negative = inhibition) at 1uM” value is on record as -0.211%.
With `Cc1ccc(S(=O)(=O)N2CCN(C(=O)Cc3ccc(S(=O)(=O)N4CCOCC4)s3)CC2)cc1` the figure was 17.1%.
With `COc1ccccc1C(=O)Nc1c2c(nn1-c1ccc(Cl)cc1)CS(=O)(=O)C2` the figure was 9.57%; with `CCOC(=O)Cc1csc(/N=C/c2c(O)n(-c3ccc(C)c(C)c3)c(=O)c3ccccc23)n1`, -0.384%; with `O=C(COC(=O)c1cccc2ccccc12)Nc1ncc(C(F)(F)F)cc1Cl`, 5.58%.
Turning to `CCOC(=O)N1CCN(C(=O)C(NC(=O)c2ccco2)C(C)C)CC1` (stereo not drawn), the “hERG current change (%, negative = inhibition) at 1uM” value came to 13.1%.
With `Cc1ccc(S(=O)(=O)N2CCCC(C(=O)NCc3cccnc3)C2)cc1Cl` (stereo not drawn) the figure was 9.6%.
On to `CCN1CCN(CC(=O)Nc2ccc3c(c2)OCO3)C(=O)C1=O`, for which the “hERG current change (%, negative = inhibition) at 1uM” value turned out to be 8.03%.
Then `CCOC(=O)C1=NN(C(=O)c2cccc(Br)c2)C(O)(C(C)(C)C)C1` (stereo not drawn), with 2.59%; and `COc1ccc2cc(S(=O)(=O)NCCCN3CCOCC3)ccc2c1`, with 4.04%.
With `Cc1cccc(NC(=O)NCc2ccc3[nH]c(C)cc3c2)c1` the figure was 16.4%; with `CCOC(=O)CSc1nnc(-c2ccccc2)o1`, 10.3%; with `Cc1nn(C)cc1/C=N/NC(=O)Cn1nnc(N)n1`, 9.58%.
As for `CCCC(=Nc1ccc(N)cc1)C1=C(O)C(C(=O)OC)C(C)(C)CC1=O` (stereo not drawn), the “hERG current change (%, negative = inhibition) at 1uM” value is 4.92%.
Then `CNC(=S)N(CCc1c(C)[nH]c2ccc(F)cc12)Cc1ccco1`, with 15.4%.
Then `CCOc1ccc(NC(=O)C(=O)NCC2CCCN2CC)cc1` (stereo not drawn), with 4.03%; and `COCCCNC(=O)c1ccc(-c2csc(C)n2)cc1`, with 0.422%; and `Cc1ccsc1/C=C1\SC(N2CCOCC2)=NC1=O`, with 0.207%.
Then `CCOC(=O)Cc1csc(NS(=O)(=O)c2ccc3c4c(cccc24)C(=O)N3CC)n1`, with 8.54%; and `O=C(CCc1nnc(C2CCCCC2)o1)NCc1ccc(F)c(F)c1`, with 9.09%.
In the case of `CCCCCCn1nc(C(=O)N(CCOC)c2c(N)n(CCCC)c(=O)[nH]c2=O)c2ccccc2c1=O`, the “hERG current change (%, negative = inhibition) at 1uM” value was 19.4%.
Then `COC(=O)c1sccc1NC(=S)Nc1ccc(C)cc1`, with 11%.
With `Cc1ccccc1Cc1ccc(Cl)nn1` the figure was 6.13%; with `Cc1cc(-c2ccccc2)nc2[nH]n(-c3ccccc3)c(=O)c12`, -0.4%; with `CC(=O)Nc1cccc(NC(=O)c2cccc3cccnc23)c1`, 15.9%.
With `CCCCN(C(=O)COc1ccc(C)cc1OC)c1c(N)n(CCC)c(=O)[nH]c1=O` the figure was 2.14%; with `O=C(NCCN1C(=O)S/C(=C\c2cccnc2)C1=O)c1ccc([N+](=O)[O-])s1`, 11.3%.
On to `COc1cccc(CCNC(=O)C2CCCN(c3ncnc4c3nc3n4CCCCC3)C2)c1OC` (stereo not drawn), for which the “hERG current change (%, negative = inhibition) at 1uM” value is on record as -31.5%.
As to `NC(=O)COC(=O)c1cc(Cl)cc(Cl)c1N`, the “hERG current change (%, negative = inhibition) at 1uM” value is given as 11.6%.
Then `COc1ccc(-c2cn3cccnc3n2)cc1`, with 14.8%; and `O=C(Nc1ccccn1)c1cc(-c2ccc(Cl)s2)nc2ccccc12`, with 10.8%; and `Cc1onc(C(=O)NN)c1C(=O)Nc1ncc(C(F)(F)F)cc1Cl`, with 15.1%.
With `CCCCc1nc2cc(C(=O)N3CCCCC3CCNC(C)=O)ccc2o1` (stereo not drawn), the “hERG current change (%, negative = inhibition) at 1uM” value was 23.1%.
Regarding `Cn1c(CN2CCCCC2)nc2cc(NS(=O)(=O)c3ccc(F)cc3)ccc21`, the “hERG current change (%, negative = inhibition) at 1uM” value is -21.8%.
With `CC(=O)c1ccc(N2CCN(c3ccc(C(F)(F)F)cn3)CC2)cc1` the figure was 4.25%; with `CCNC(=S)NNC(=O)CCc1nc2cc(Cl)ccc2n(Cc2ccccc2)c1=O`, 6.29%.
Then `CC12COC3(C(=O)Nc4ccc(Cl)cc4)CC1CCC32C` (stereo not drawn), with 9.96%.
With `CC(C)(C)c1nc(SCC(=O)c2ccccc2)c2ccccc2n1` the figure was 13.5%; with `CC1CCCCN1CCCNC(=O)c1ccc(NC(=O)C2=CSCCO2)cc1` (stereo not drawn), 16.1%; with `Cc1cc(=O)n(C)c2ccc(S(=O)(=O)N3CCOCC3)cc12`, 20.4%.
Take `O=C(O)CCCNC(=O)C(c1ccccc1)c1ccccc1`: the “hERG current change (%, negative = inhibition) at 1uM” value was determined as 6%.
For the compound `CC[n+]1ccc2cc(OC)c(OC)cc2c1Cc1ccc(OC)c(OC)c1.[I-]`, the “hERG current change (%, negative = inhibition) at 1uM” value is on record as 24.5%.
